Several values for one entry are separate records, joined by “and”; a condition that tells them apart may be missing. Identical values can stand only once. Among all 48,000 compounds or so, about 1,200 (2.5%) were called active. Another 2% or so got no clear call; they are omitted.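 How the source made its calls: active means activation of at least 60% and not above a set upper limit (about 1 call in 100 departs from these limits); inconclusive means activation of 40% to 60%, or above that upper limit; inactive means activation under 40%.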 Some of the results follow.
Target: Probable G-protein coupled receptor 32 (Homo sapiens) (UniProt O75388)
Sequence of UniProt O75388 (O75388 whole entry, looked up): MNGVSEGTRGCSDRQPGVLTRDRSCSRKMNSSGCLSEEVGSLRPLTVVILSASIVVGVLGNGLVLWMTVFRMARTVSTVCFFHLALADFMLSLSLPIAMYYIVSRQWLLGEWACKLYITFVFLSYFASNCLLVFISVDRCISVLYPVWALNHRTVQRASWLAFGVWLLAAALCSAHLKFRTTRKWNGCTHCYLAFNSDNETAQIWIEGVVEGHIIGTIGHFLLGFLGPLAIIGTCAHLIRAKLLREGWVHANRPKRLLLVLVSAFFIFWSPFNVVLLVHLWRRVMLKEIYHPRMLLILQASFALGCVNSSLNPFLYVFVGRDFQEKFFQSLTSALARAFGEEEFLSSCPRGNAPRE
Assay: qHTS for Agonists of Human Resolvin D1 Receptor DRV1; further: 0% is about no effect
Details: CHO-K1 GPR32 beta-arrestin PathHunter luminescence, 90 min; at 76.9 µM; active compounds read high; zero percent set by DMSO-only wells
In short: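 Luminescent readout of beta-Gal complementation quantifies ligand-induced beta-arrestin association with GPR32 in CHO-K1 cells; 90 min compound incubation at 37 °C, detection 1 h at room temperature.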

activation, active:
COc1cccc(-c2nnc(SCC(=O)N(C)C3CCCCC3)o2)c1 71.7%
CCOc1ccccc1NC(=O)COC(=O)CC(C)(C)CC1=NS(=O)(=O)c2ccccc2N1 83.4%

activation, inactive:
COc1cccc(-c2nc(CS(=O)(=O)CC(=O)N3CCN(c4ccccc4)CC3)c(C)o2)c1 -12.5%
Cc1ccc(Cl)cc1N1CCN(C(=O)c2ccc3c(Cl)c4c(nc3c2)CCCC4)CC1 12.4%
O=c1ccc(-c2ccccc2)nn1Cc1c(F)cccc1Cl 20.9%
CCn1ccc2c(OCC(=O)Nc3ccc(OC)cc3OC)cccc2c1=O 29.2%
COc1ccccc1CNC(=O)CCc1c(C)c2cc3c(C)coc3cc2oc1=O -9.35%
CCN1CCN(CCCNC(=O)Cn2c(-c3cccs3)cc3cc(Cl)ccc32)CC1 11.4%
CCCCOc1ccc(CNC(=O)c2cnc3sc(N4CCCC4)nn3c2=O)cc1 7.55%
CC1CCCCN1c1cc2c(cc1F)c(=O)c(S(=O)(=O)c1ccccc1)cn2Cc1ccccc1 (centres undefined) -10.7%
O=C(Cn1c(-c2cccs2)cc2cc(F)ccc21)NCCc1ccc(Cl)cc1 16.8%
O=S(=O)(Nc1ccc(O)c(Sc2nc3ccccc3s2)c1)c1cc(Cl)ccc1Cl 13.4%
CCn1cc(C(=O)NCCC(C)C)c(=O)c2cc(S(=O)(=O)N(C)C3CCCCC3)ccc21 -2.32%
CCC(=O)N1c2ccccc2CC1C(=O)NCCCN1CCN(c2ccc(OC)cc2)CC1 (centres undefined) 11.2%
Cc1nc2c3cccnc3nn2c(C)c1CCC(=O)NCc1ccccc1 -11.4%
CCN(CC)S(=O)(=O)c1ccc2c(c1)nc(CN(C)C(=O)Nc1ccc(C)c(Cl)c1)n2C -13.8%
Cc1ccc(C)c(NC(=O)c2cc(S(=O)(=O)NCc3ccccc3)ccc2F)c1 -4.09%
COc1ccccc1Nc1nc(C)nc(N)c1S(=O)(=O)c1ccccc1 -9.1%
CN(C)CCN(Cc1cccs1)c1ccccn1 9.46% and -10%
Cc1ccc(OCC(=O)NCC2(N3CCN(C)CC3)CCCCC2)cc1 -6.14%
COc1ccc(Nc2ncc(C(=O)Nc3cccc(Cl)c3)c3ccccc23)cc1 -53.5%
CCc1ccc(NC(=O)C(=O)NCC(c2ccc3c(c2)OCO3)N2CCN(C)CC2)cc1 (centres undefined) 5.32%
COc1ccc(-n2nc3c(N4CCC(C(=O)N5CCC(C)CC5)CC4)nnc(C)c3c2C)cc1 -4.77%
COc1ccc(CNC(=O)c2ccc(Cn3c(=O)c4cccn4c4cccnc43)cc2)c(OC)c1 -8.76%
Cc1ccc(O)c(NC(=O)c2cc(-c3ccc(F)cc3)no2)c1 -10.1%
CC(C)CCNC(=O)c1cnc2sc(N3CCCCCC3)nn2c1=O -9.92%
COc1ccc(NC(=O)[C@H](Cc2ccccc2)N2Cc3ccccc3C2=O)cc1OC -2.42%
Cc1ccc(-n2ncc(C(=O)NCCN3CCN(C)CC3)c2C2CCN(C(=O)OC(C)(C)C)CC2)cc1C -4.58%
COc1cccc(NC(=O)Cn2c(=O)n(Cc3ccc4c(c3)OCO4)c(=O)c3oc4ccccc4c32)c1 -26.8%
CCOc1ccc(CNC(=O)Cn2c(=O)c3cccn3c3cccnc32)cc1 -7.28%
COc1ccc2c(c1)c(N1CCCC1=O)c(C(=O)Nc1ccc(OC)c(Cl)c1)n2C 3.27%
CC(=O)c1cccc(NS(=O)(=O)c2c(C(=O)N3CCCCCC3)c(C)n(C)c2C)c1 -7.96%
Cc1nn(-c2ccccc2)c2c1N(CC(=O)N1CCN(c3ccc(Cl)cc3)CC1)C(=O)CS2 2.49%
Cc1nn(-c2ccccc2)c2c1N(CCCC(=O)NC(C)c1ccccc1)C(=O)CS2 (centres undefined) -1.75%
CCc1ccc(NC(=O)c2cc(S(=O)(=O)NC3CCCCCC3)ccc2F)cc1 -16.7%
COc1cc(NC(=O)c2noc3c2CC(C)CC3)c(OC)cc1Cl (centres undefined) -10.5%
Cc1ccc(S(=O)(=O)c2cn(Cc3ccccc3)c3cc(N4CCOCC4)c(F)cc3c2=O)cc1 -6.98%
CCc1ccc(CNC(=O)CCn2nc(C)c3c(C)n(-c4ccccc4)nc3c2=O)cc1 -7.02%
Cc1nn(CCCC(=O)Nc2ccccc2C(F)(F)F)c(=O)c2nn(-c3ccccc3)c(C)c12 2.28%
COc1ccc(-n2c(SCCC(C)C)nc3sc4c(c3c2=O)CC(C(C)C)OC4)cc1 (centres undefined) -3.1%
CC1CCC(NC(=O)c2ccc(CSc3nc4ccncc4n3Cc3ccc(F)cc3)cc2)CC1 (centres undefined) 4.96%
COc1ccc(C(CC(=O)Nc2ncccc2C)N2Cc3ccccc3C2=O)cc1OC (centres undefined) 3.96%
O=C(Nc1ccccc1)c1cccc(N2CCCS2(=O)=O)c1 31.6%
Cc1cc(C)n2nc(CNC(=O)c3ccc(Cl)cc3)nc2n1 5.47%
Cc1nn2c(-c3ccccc3)cc(-c3ccccc3)nc2c1-c1ccc(Cl)cc1 5.37%
O=C(Nc1cc(Cl)cc(Cl)c1)c1cc(S(=O)(=O)NC2CCCC2)ccc1F -7.96%
Cc1c(Cl)cccc1NC(=O)CCS(=O)(=O)c1ccc2c(c1)CC(C)N2C(=O)C1CC1 (centres undefined) -8.52%
COc1ccc(CN(C)c2ccc(-c3nc(-c4ccc(OC)c(OC)c4)no3)cc2[N+](=O)[O-])cc1 -13%
CCOc1ccc2nc(Cl)c(C3CC(c4ccc(C)cc4)=NN3C(=O)CCC(=O)O)cc2c1 (centres undefined) 2.95%
Cc1cccc(N2CCN(C(=O)C3CCN(C(=O)c4cc5sccc5n4C)CC3)CC2C)c1 (centres undefined) 37.5%
CCOc1ccccc1CNCc1c(C(=O)O)c(C)n(Cc2ccc(C)cc2)c1C 7.41%
CN1CCc2nc3sc(C(=O)c4ccc(F)cc4)c(N)c3cc2C1 -31%
CCC(C)S(=O)(=O)c1oc(-c2cccs2)nc1S(=O)(=O)c1ccccc1 (centres undefined) -14.2%
COc1cn(CC(=O)Nc2cc(C)cc(C)c2)c(CN2CCCCC2)cc1=O -14.3%
CCOc1ccc(CCNC(=O)Cn2c(-c3cccs3)cc3ccccc32)cc1 -15%
CN1C(=O)c2cccc3c(S(=O)(=O)Nc4cccc(C(=O)O)c4)ccc1c23 -18.1%
CCOc1ccc(NC(=O)CN(Cc2ccccc2)S(=O)(=O)c2ccc3nc(C)sc3c2)cc1 -21.4%
Cc1ccc2c(c1)c1c(c(=O)n(Cc3ccccc3)c(=O)n1Cc1ccccc1F)n2C -6.65%
CN(c1ccc(F)cc1)S(=O)(=O)N1CCCC(C(=O)NCc2ccccc2Cl)C1 (centres undefined) -6.7%
CCN(CC)S(=O)(=O)c1ccc(OC)c(NC(=O)c2sc3ccccc3c2Cl)c1 1.45%
CCOc1ccc(N2CC(NC(=O)c3ccc(Cl)cc3)CC2=O)cc1 (centres undefined) -1.62%
Cc1cccc(NC(=O)c2oc3ccccc3c2NC(=O)c2cc(=O)c3ccccc3o2)c1 0.567%
CCOC(=O)N1CCc2c(sc3c2c(=O)n(Cc2ccccc2)c(=O)n3CC(=O)Nc2ccc(F)cc2)C1 -16.5%
CNC(=O)CN1C(=O)COc2ccc(S(=O)(=O)N3CCCCCC3)cc21 -1.5%
NC(CO)(CO)CO 3.91%
O=C(C1CCC1)N1CCCc2cc(S(=O)(=O)N3CCN(c4cccc(Cl)c4)CC3)ccc21 -23.8%
CCOc1ccc(-n2ccnc2SCC(=O)Nc2cc(C)ccc2C)cc1 -1.49%
COc1cccc(-n2c(SCc3cccc(C)c3)nc3c([nH]c4ccccc43)c2=O)c1 -43.4%
CCOCc1cc(CN2CCN(c3cccc(C(F)(F)F)c3)CC2)c(O)c2ncccc12 21.8%
Cc1ccc(C)c(NC(=O)C(=O)NCCCN2CCOCC2)c1 -2.96%
Cc1onc(-c2ccccc2Cl)c1C(=O)Oc1ccc(Cl)cc1Cl -1.84%
O=C(NCCCN1CCN(c2ccccc2)CC1)c1sc2ncccc2c1-n1cccc1 -5.39%
CCOc1ccc(CCNC(=O)c2cnc3c(-c4ccc(F)cc4)c(C)nn3c2C)cc1 -4.97%
COc1cc(S(=O)(=O)NCCc2c(C)[nH]c3ccc(C)cc23)ccc1Br -4.92%
Nc1ncc(S(=O)(=O)NCc2ccccc2)cn1 -4.69%
COc1ccc(N(C(=O)c2ccccc2C)S(=O)(=O)c2ccc(Cl)cc2)cc1 -21.4%
O=C(NCCc1nc2ccccc2n1Cc1ccccc1F)c1ccc(F)cc1 -9.27%
CN1C(C(=O)Nc2cccc(O)c2)=CC(c2cccs2)=NS1(=O)=O 1.78%
COc1ccc(C(=O)c2cn(Cc3ccccc3)c3ccccc3c2=O)cc1OC -16.2%
Cc1ccc(CNC(=O)c2ccc3c(c2)CCN3S(=O)(=O)c2ccc(Br)cc2)cc1 -4.01%
COc1ccc(C2CC(=O)c3cc(-c4nc(-c5cccc([N+](=O)[O-])c5)cs4)c(=O)n(-c4ccccc4N)c3C2)cc1 (centres undefined) 3.05%
COC(=O)c1ccc(NC(=O)Cn2c(=O)oc3ccccc32)cc1 -7.05%
Cc1nc2ccn(Cc3ccco3)c(=O)c2cc1C(=O)NCc1ccc(Cl)cc1 -17%
NC(=O)c1cc(S(=O)(=O)NCc2cccc(Br)c2)cs1 10.2%
